From PubChem BioAssay AID485367 (National Center for Advancing Translational Sciences (NCATS), 2010)
Out of some 330,000 compounds screened, about 560 (0.17%) were called active. Inconclusive results (about 1%) are left out. The call rests on the fitted dose curve; in most records, active means well fitted inhibition curve with a large enough effect; inconclusive means small, poorly fitted or top-dose-only effect, or effect the other way; inactive means flat fitted curve, though single readings scatter. The entries are a selection whose mix differs from that of the whole data set. Some compounds were tested as several samples or in several runs, with calls that do not always agree.

molecular target: ATP-dependent 6-phosphofructokinase (Trypanosoma brucei brucei) (UniProt O15648); assay: qHTS Assay to Find Inhibitors of T. brucei phosphofructokinase; further: nearly all actives have a fitted effect of over 60% in size; settings: T. brucei PFK, ADP-Glo luminescence; series mostly up to 57.5 µM; activity, negative = inhibition: at the top concentration
Sequence of UniProt O15648 (O15648 whole entry, looked up): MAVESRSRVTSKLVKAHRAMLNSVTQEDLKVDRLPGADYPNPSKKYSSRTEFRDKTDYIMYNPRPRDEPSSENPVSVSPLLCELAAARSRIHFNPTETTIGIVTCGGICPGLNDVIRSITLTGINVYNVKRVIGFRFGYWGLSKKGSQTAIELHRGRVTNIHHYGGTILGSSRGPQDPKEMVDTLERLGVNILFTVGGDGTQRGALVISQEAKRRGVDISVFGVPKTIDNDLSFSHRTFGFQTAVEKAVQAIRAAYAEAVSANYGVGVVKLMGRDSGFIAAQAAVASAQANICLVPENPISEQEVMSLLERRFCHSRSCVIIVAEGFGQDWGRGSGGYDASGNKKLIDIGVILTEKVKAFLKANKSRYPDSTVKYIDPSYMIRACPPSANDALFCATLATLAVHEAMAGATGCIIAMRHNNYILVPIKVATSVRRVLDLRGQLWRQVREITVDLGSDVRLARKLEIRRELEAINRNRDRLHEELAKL
Excerpt: NIH Molecular Libraries Probe Production Network [MLPCN] NIH Chemical Genomics Center [NCGC] Grant: 1 R03 MH092153-01 PI Name: Malcolm Walkinshaw, University of Edinburgh NCGC Assay Overview: Various species of the protozoan family Trypanosomatidae are responsible for a range of serious human diseases in tropical and subtropical areas of the world. […] Many of the disorders caused by trypanosomatids are fatal if left untreated, but most currently used drugs are inefficient and toxic. […] Oxidative metabolism involving the mitochondrial tricarboxylic acid cycle and oxidative phosphorylation are repressed in these parasites, and recent RNA interference (RNAi) experiments have shown that even partial depletion of certain individual glycolytic enzymes can lead to the death of cultured parasites. One such glycolytic enzyme, phosphofructokinase (PFK), catalyzes the formation of fructose-1,6-bisphosphate (F1,6BP) and ADP from fructose-6-phosphate (F6P) and ATP, and in many metabolic circumstances makes an important contribution to the control of flux through the glycolytic pathway. As a specific glycolytic target, PFK is particularly attractive as it catalyzes the first irreversible step in glycolysis, and structural and kinetic studies have shown very substantial and essential differences from corresponding host enzymes, allowing for the discovery of parasite-selective inhibitors. The goal of this screen is to find small-molecule inhibitors of T. brucei PFK using a biochemical assay that measures PFK activity as a function of ADP production. A luminescence-based assay for T. brucei PFK activity has been developed which uses luciferase to detect production of ADP. Traditional luciferase-based nucleotide detection reagents rely on ATP production as a direct substrate for the luciferase reaction; however, PFK catalyzes the transfer of a phosphate from ATP to F6P, resulting in the net depletion of ATP. To directly measure the ADP product of the PFK reaction, we used the ADP-Glo detection kit (Promega), which utilizes two separate reactions to 1) deplete all remaining uncatalyzed ATP and 2) convert all remaining ADP to ATP, which is then detected through a traditional luciferase-coupled reaction. Compounds were screened as a concentration-titration series that ranged from 57 uM to 0.7 nM.
NCGC Assay Protocol Summary: NCGC Assay Protocol Summary: Substrate buffer was dispensed into white, solid 1536-well plates at 3uL/well in 0.1M triethanolamine (TEA) buffer, pH 8.0, containing final concentrations of 5 mM MgCl2, 0.01% Tween20, 0.5 mM fructose-6-phosphate (F6P) and 0.1mM ATP. Then, 23 nL of compounds or DMSO were delivered to each well using a pin tool. One uL T. brucei PFK (0.1M TEA, 0.01% Tween20, 0.1% bovine serum albumin (BSA) and 1.25nM PFK, final concentrations) was then dispensed, and plates were incubated at room temperature for 45 min. The luminescent detection reagent, ADP-Glo (Promega), was then added in two steps: the first reagent, ADP-Glo (which converts remaining uncatalyzed ATP), was added at 2.5uL/well and incubated for ten minutes at room temperature, and the second component, Kinase Detection reagent (which converts ADP to ATP as a substrate for luciferase-based luminescence), was added immediately after at 5uL/well, followed by one final ten minute room temperature incubation. The plates were measured on a ViewLux plate reader for luminescent signal using a clear filter with a one second exposure. The %Activity was determined from the corrected luminescence values. As no specific T. brucei PFK inhibitors have been identified in the literature, 1x (1.25nM) and 0x PFK enzyme controls (untreated) were included to normalize %Activity of identified inhibitors; 0x enzyme values corresponded to 100%Activity (full inhibition), while 1x PFK enzyme values were used to normalize 0%Activity (no inhibition). Concentration-response curves were fitted to the signals arising from the resulting luminescence. […]
Potency means the concentration at half of the fitted maximal effect.

SMILES	activity, negative = inhibition	Potency
CC(C)(C)OC(=O)C[C@@H]1C/C=C\C[C@H](CC(=O)NCCO)C(=O)NC[C@H](c2ccccc2)OC1=O	inactive: 0.641%	
C[C@@H]1O[C@@H](OC2C(O)C(OCCc3ccc(O)c(O)c3)OC(CO)C2OC(=O)/C=C/c2ccc(O)c(O)c2)[C@H](O)[C@H](O)[C@H]1O (stereo partly specified)	inactive: -4.32%	
CC(C)(C)OC(=O)C[C@H]1C/C=C\C[C@@H](CC(=O)NCCO)C(=O)NC[C@H](c2ccccc2)OC1=O	inactive: -6.4%	
COC(=O)/C(C(C)=O)=C(/C=C/C=C/N(C)C)N(C)C	inactive: -2.89%	
CN(C)CCC(c1ccc(Br)cc1)c1ccccn1 (stereo unspecified)	inactive: -1.19%	
CC(C)(C)OC(=O)C[C@@H]1C/C=C\C[C@H](CC(=O)NCCO)C(=O)NC[C@@H](c2ccccc2)OC1=O	inactive: 9.12%	
CS(=O)(=O)N1CC(C(=O)NC2CC2)Oc2ccc(Cl)cc21 (stereo unspecified)		active: 21.3 µM
COc1ccccc1/C=C\C=N\n1c(-c2ccc(Cl)cc2)n[nH]c1=S	inactive: -21%	
COc1ccccc1C(=O)Nc1ccc2c(c1)C(=O)NC2=O		active: 23.9 µM
COC(=O)[C@@]12CCCN1[C@H](c1ccc(-c3ccccc3)cc1)[C@H]1C(=O)N(C)C(=O)[C@H]12	inactive: -8.21%	
FC(F)(F)c1cccc(NC(=S)Nc2ccc(Cl)c(Cl)c2)c1		active: 9.53 µM
CN(Cc1ccco1)Cc1ccc(O)c2ncccc12	inactive: -14.6%	
CC(C)(C)OC(=O)C[C@H]1C/C=C\C[C@H](CC(=O)N(CCO)Cc2ccccc2)C(=O)N[C@H](C(C)(C)C)COC1=O	inactive: -3.51%	
CC(C)(C)OC(=O)C[C@H]1C/C=C\C[C@@H](CC(=O)N(CCO)Cc2ccccc2)C(=O)N[C@H](C(C)(C)C)COC1=O	inactive: 4.18%	
Cc1ccc(C(O)(C(=O)NNc2ccc3ccccc3n2)c2ccc(C)cc2)cc1	inactive: 6.45%	
NC(=O)C1CCN(c2nc(-c3ccc4occc(=O)c4c3)cs2)CC1	inactive: 10.3%	
CC(=O)C[C@H](O)CC(=O)[C@H]1OC(=O)[C@@H](C)CCCCc2ccccc21	inactive: 5.81%	
O=C(O)c1ccc(NCc2cccc(Br)c2)cc1		active: 21.3 µM
Cc1nc(N)nc(SCc2ccc([N+](=O)[O-])cc2)c1N		active: 13.5 µM
C#CCNc1ccc([N+](=O)[O-])cc1		active: 23.9 µM
O=C(CCCN1C(=O)/C(=C\c2cccs2)SC1=S)Nc1cccnc1	inactive: -3.3%	
C=CC[C@@H](CC(=O)N[C@H](CO)Cc1ccccc1)C(=O)N[C@@H](COC(=O)[C@@H](CC=C)Cc1ccc(F)cc1)Cc1ccccc1	inactive: 0%	
Cc1cc(C)c2c(=O)n(CC(=O)N3CCC(N4CCCCC4)CC3)sc2n1		active: 2.39 µM

SMILES	activity, negative = inhibition	Potency
Cc1nc(C)c(/C(O)=C\c2nc3ccc([N+](=O)[O-])cc3oc2=O)o1	inactive: -15.7%	
Cc1ccc(S(=O)(=O)N2C[C@@H]3[C@H]4CC[C@H](C4)[C@@H]3[C@@H](C)[C@@H]2c2ccco2)cc1	inactive: -3.29%	
CCN1C(=O)/C(=C/c2nc3ccccc3c(=O)n2-c2ccccc2)c2ccccc21	inactive: -2.66%	
CCn1c(SCC(=O)N/N=C/C(C)=C/c2ccco2)nnc1-c1ccccc1	inactive: -9.96%	
N#Cc1ccc(N=c2ssnc2Cl)cc1	inactive: -14%	
O=C(Cc1ccc(F)cc1)Nc1ccc(S(=O)(=O)N2CCCC2)cc1		active: 16.9 µM
CC(=O)C[C@H](O)CC(=O)[C@H]1OC(=O)[C@H](C)CCCCc2ccccc21	inactive: 0%	
S=C(NCc1ccccc1)N1CCN(c2cccc(Cl)c2)CC1		active: 26.9 µM
CC(C)NC[C@H](O)c1ccc(O)c(O)c1	inactive: -9.09%	
CC(/C=C\c1cccnc1)=C/C(=O)O	inactive: 0.844%	
COc1ccc(CNC(=O)N2CCN(c3cccc(Cl)c3)CC2)cc1OC		active: 26.9 µM
CCSc1nc2ccccc2n1C(=O)/C=C\c1ccc(OC)c(OC)c1	inactive: 1.99%	
COc1ccc(C(=S)NCS(=O)(=O)c2ccc(C)cc2)cc1		active: 21.3 µM
O=[N+]([O-])c1ccc(SCCc2ccncc2)cc1	inactive: -17.6%	
COC(=O)c1sc(NC(=O)c2cc(-c3ccccc3)nc3ccccc23)c(C#N)c1C		active: 6.75 µM
CN1CCN(C(=O)/C(=C/c2ccccc2)c2ccccc2)CC1	inactive: -0.21%	
CCOc1cc(/C=C2/NC(=O)NC2=O)cc([N+](=O)[O-])c1O	inactive: 28.7%	
CN(C)/C=C1\C=C(c2ccccc2)OC1=O	inactive: -29.9%	
CCOC(=O)CN1C(=O)N[C@H](c2ccc(Br)cc2)C(C(C)=O)=C1C	inactive: -3.74%	
CN(C)CCCNc1cc(O)c2ncccc2c1	inactive: -12.9%	
Cc1ccc(NS(=O)(=O)c2cc(NC(=O)c3ccc4c(c3)NC(=O)CS4)ccc2C)c(C)c1		active: 21.3 µM
C[C@@H](NC(=O)c1nc[nH]c1C(=O)NCc1ccccc1)c1ccccc1	inactive: 1.87%	
O=[N+]([O-])c1ccc(CNc2ccc(Cl)cc2)s1		active: 26.9 µM
